Source: the supplement of paper PMC3334620
Whole data set: some 33,000 sequences, median “E-score (-0.5 to 0.5)” near -0.016, cut for the highest 2% near 0.32. Some of the results follow.

Target: T1, Stp1 (UniProt B3LFK1)
T1 sequence: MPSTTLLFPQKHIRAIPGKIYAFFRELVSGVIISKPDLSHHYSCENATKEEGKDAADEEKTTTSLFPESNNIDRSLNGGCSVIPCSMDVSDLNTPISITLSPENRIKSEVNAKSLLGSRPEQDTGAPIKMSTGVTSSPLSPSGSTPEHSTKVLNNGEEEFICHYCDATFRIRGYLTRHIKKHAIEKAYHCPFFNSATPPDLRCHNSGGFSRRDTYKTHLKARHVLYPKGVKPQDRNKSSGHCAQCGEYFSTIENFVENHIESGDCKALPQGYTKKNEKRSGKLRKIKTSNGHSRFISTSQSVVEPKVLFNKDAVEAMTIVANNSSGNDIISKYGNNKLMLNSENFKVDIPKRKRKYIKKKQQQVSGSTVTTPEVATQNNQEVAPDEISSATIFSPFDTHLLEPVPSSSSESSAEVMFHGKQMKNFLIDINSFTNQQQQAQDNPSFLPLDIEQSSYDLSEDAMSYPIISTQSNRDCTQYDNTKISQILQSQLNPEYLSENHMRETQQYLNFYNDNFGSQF
Assay: PBM E-score (8-mer binding enrichment) (E-score (-0.5 to 0.5)); higher = stronger / more preferred TF binding; most listed sequences are background and not binding sites
Details: protein concentration: 200 nM; construct: GST-full length
Summary of the method: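 Full-length yeast transcription factors or their DNA-binding domains, GST-tagged and expressed with PURExpress, were applied at about 100-200 nM to universal all-10-mer Agilent arrays. These arrays had been made double-stranded by primer extension on fresh or once-stripped slides. Detection used fluorescent anti-GST, normalisation used masliner, and E-scores for ungapped eight-base words pooled with reverse complements came from the Universal PBM Analysis Suite.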

Row | Sequence | PBM E-score
1 | CTGTGCCA | -0.0168
2 | CGCTCCCG | -0.194
3 | ACGTCGGA | -0.227
4 | ACAGCTGA | 0.052
5 | AGAATTAT | -0.0351
6 | CGAAATCG | 0.00988
7 | CTTAGATC | -0.0805
8 | CTGAACAA | 0.0991
9 | GAATGGAA | 0.143
10 | GGATCGGA | 0.0162
11 | CCTCCGAG | -0.238
12 | TGCAAGAA | 0.169
13 | GATGGTCA | -0.116
14 | CCGAACGC | 0.226
15 | ACACGAGG | 0.0411
16 | AAATCAGG | -0.0251
17 | CCAGAGGA | -0.158
18 | AAGGGTAA | -0.26
19 | CCGAGTTA | 0.0424
20 | ATCATCCG | 0.0215
21 | TCGGCACA | 0.135
22 | GACGGCCC | 0.069
23 | ACCCGGCT | -0.133
24 | CTGTTCCA | -0.143
25 | AAGCAGGC | -0.277

Row | Sequence | PBM E-score
26 | TCTGCACA | -0.0429
27 | GACTGTTA | -0.141
28 | CAACCGAC | 0.0928
29 | CTGCACAA | 0.0933
30 | AGCACACA | -0.358
31 | AAACACTC | 0.013
32 | AGGATCTC | -0.245
33 | AGGAGTCC | -0.151
34 | ATGGGTGC | -0.106
35 | CTTCGTGA | -0.0602
36 | ACATTCAC | -0.0143
37 | CGAAGATA | 0.114
38 | ACGTTAAC | 0.0164
39 | GTCTCCCA | -0.274
40 | ATTTGATG | 0.0645
41 | CCACCATA | -0.0321
42 | ACGCTCTG | -0.215
43 | GAAATCTC | -0.0432
44 | GGCCGTCA | -0.0626
45 | ATTGACTA | -0.0906
46 | CCAGGGAG | -0.343
47 | CTCTTGGA | 0.00544
48 | CCTGCGCG | 0.0126
49 | CCGCCTCA | 0.246
50 | AGAAGGGG | -0.166

Row | Sequence | PBM E-score
51 | CATCCTTA | -0.0162
52 | ATGATATG | 0.0864
53 | GGAGTGAC | -0.0819
54 | CAGAGAGG | -0.207
55 | CCTTCTCG | -0.0971
56 | GTGCACGA | -0.0788
57 | ACTTAGCG | 0.0102
58 | AGGCAAAC | 0.118
59 | ATCACCAC | 0.0187
60 | ATAAGGGC | -0.0696
61 | CACCGCTC | -0.0467
62 | CAGTAGTC | -0.252
63 | GTCGAACA | 0.0174
64 | ACTTTGAA | 0.0491
65 | AACGATGG | -0.155
66 | ACAGAACT | 0.0231
67 | ACCCTGAT | -0.229
68 | AGATGAGA | 0.0792
69 | AATCTAAA | 0.131
70 | CTGATATC | 0.272
71 | GCGGAAAA | 0.176
72 | GCACCTGA | 0.00901
73 | GCAAGGAC | 0.00567
74 | AAGACAAC | 0.187
75 | ACACAGTA | 0.0897

Row | Sequence | PBM E-score
76 | ATTTGACC | -0.015
77 | ACCATGAC | 0.0685
78 | AAGTCTAG | -0.31
79 | CACGAGTG | -0.0748
80 | GAAATAAC | 0.153
81 | CTTAATAA | 0.129
82 | GAGACAAA | -0.169
83 | AACAGTGC | -0.0025
84 | TATCAACA | 0.107
85 | CGCGCCCA | 0.213
86 | TAACTTAA | 0.213
87 | GCAGTCGA | -0.137
88 | ACGGCTAA | 0.377
89 | ACCTTTAC | 0.0425
90 | GGCGGTGA | -0.0389
91 | CAGGTCCC | -0.157
92 | AGCACATG | 0.0725
93 | GTATAGTA | -0.00942
94 | ATATGCAT | -0.0712
95 | CTCAAAGA | -0.163
96 | AGAGTGTC | 0.0784
97 | ACAGAAAG | 0.0157
98 | GGGCACTA | 0.23
99 | ACTATAAA | 0.171
100 | ATATCTTG | 0.0836

Row | Sequence | PBM E-score
101 | AATCGACG | 0.0603
102 | AACAACAG | -0.0396
103 | CAAGGACA | 0.00903
104 | GTCGTCAA | -0.0852
105 | CGATTGGA | 0.00336
106 | GAATATAC | 0.116
107 | AATCTCGT | 0.108
108 | CCTCACAA | 0.151
109 | TAAAAATA | 0.227
110 | ATGAAGTA | 0.0646
111 | AGTTCAGC | -0.165
112 | CGTCAAAA | 0.164
113 | ATATGGAA | -0.0684
114 | AGCGCTTG | -0.16
115 | GTGGTAAC | -0.0165
116 | ACCCTCCG | -0.326
117 | CGTATTGA | 0.108
118 | AAGAATGC | 0.101
119 | ACCGGACG | 0.175
120 | CATAGTCG | -0.142
121 | CTGGTAGC | -0.0574
122 | GGACCGAA | -0.0482
123 | ACGGCCGT | 0.401
124 | AAGGGAAC | -0.185
125 | ACGTAACA | 0.05

Row | Sequence | PBM E-score
126 | ATCTAAGA | 0.0545
127 | ATGTGTGC | -0.149
128 | CTTGCGGA | -0.11
129 | TAGTGCAA | 0.0577
130 | CATAACGA | -0.0382
131 | CGCAATAA | 0.15
132 | GTTAGCCA | -0.117
133 | AACTACGT | -0.0263
134 | ACATATAA | 0.213
135 | ATTACAGG | 0.159
136 | ATGACAGA | 0.0404
137 | GGGGCCAC | -0.225
138 | AGTTGGTC | -0.0836
139 | ATTCGAAA | 0.0825
140 | GCCGGCAC | 0.273
141 | GGATGCAC | -0.0258
142 | AGCGACAT | -0.122
143 | CCGAACCG | -0.14
144 | ATTATACA | 0.138
145 | CAAGGAGA | -0.115
146 | AAAACGAT | -0.0519
147 | CAAATCGC | -0.0312
148 | GAGGGACC | -0.281
149 | CTTAAGTC | -0.195
150 | ACGCTCGG | 0.0606

Row | Sequence | PBM E-score
151 | AACGCCCT | 0.203
152 | CGGAGGAG | -0.273
153 | CAACAGCG | 0.0186
154 | ACATGCTC | -0.116
155 | TAATGGGA | -0.18
156 | ATATAAGC | 0.226
157 | CCGACGCG | 0.139
158 | TAGCAGCA | -0.0684
159 | TCATCCGA | 0.0548
160 | CCTCCAAC | -0.231
161 | CACAGAAG | -0.0547
162 | ACGATATA | 0.0856
163 | CACGAAAC | 0.116
164 | GGCAAAAC | 0.254
165 | CCGTGCCA | 0.35
166 | CCTAAGCG | -0.0546
167 | GCTGGTGA | -0.124
168 | GCGACCTA | -0.0105
169 | AGGACAAC | -0.0781
170 | GCAATACC | -0.0888
171 | AGTCCAAG | -0.0202
172 | TCTATTAA | 0.107
